PubChem BioAssay AID1460 (National Center for Advancing Translational Sciences (NCATS), 2008)
Where “and” joins values, the source holds several entries; their conditions need not be identical. Equal values may be shown once. The campaign covered roughly 270,000 compounds. About 5,800 (2.1%) were called active. The shares of active, inactive and inconclusive entries below differ from those in the screen. Calls follow the shape of the dose curve; as a rule, active = well fitted inhibition curve with a large enough effect; inconclusive = small, poorly fitted or top-dose-only effect; inactive = flat fitted curve, though single readings scatter. A potency beside an inconclusive call is a rough fit, not a confirmed value. Numbered stars: 1 amine (or outer) side, 2 acyl side, 3 side chain; on linkers, the order of the positions; unused ones are H or OH. Bridge positions count the residues as written; N and C are the ends. Square brackets hold non-standard residues; d marks the D form. Peptide text beside a SMILES is read from it. I, II: the chains in the order shown. Actinocin(9to1) = Cc1c2oc3c(C)ccc(C(=O)[*:1])c3nc-2c(C(=O)[*:2])c(N)c1=O; NMeV = CN[C@H](C(=O)O)C(C)C; Sar = CNCC(=O)O

Each compound was assayed against Microtubule-associated protein tau (Homo sapiens) (UniProt P10636) (assay: qHTS for Inhibitors of Tau Fibril Formation, Thioflavin T Binding). Settings: recombinant tau K18 P301L, heparin-induced fibrillization, ThT fluorescence; series mostly up to 57.4 µM; activity, negative = inhibition: at the top concentration.
UniProt P10636, sequence (P10636 whole entry, looked up): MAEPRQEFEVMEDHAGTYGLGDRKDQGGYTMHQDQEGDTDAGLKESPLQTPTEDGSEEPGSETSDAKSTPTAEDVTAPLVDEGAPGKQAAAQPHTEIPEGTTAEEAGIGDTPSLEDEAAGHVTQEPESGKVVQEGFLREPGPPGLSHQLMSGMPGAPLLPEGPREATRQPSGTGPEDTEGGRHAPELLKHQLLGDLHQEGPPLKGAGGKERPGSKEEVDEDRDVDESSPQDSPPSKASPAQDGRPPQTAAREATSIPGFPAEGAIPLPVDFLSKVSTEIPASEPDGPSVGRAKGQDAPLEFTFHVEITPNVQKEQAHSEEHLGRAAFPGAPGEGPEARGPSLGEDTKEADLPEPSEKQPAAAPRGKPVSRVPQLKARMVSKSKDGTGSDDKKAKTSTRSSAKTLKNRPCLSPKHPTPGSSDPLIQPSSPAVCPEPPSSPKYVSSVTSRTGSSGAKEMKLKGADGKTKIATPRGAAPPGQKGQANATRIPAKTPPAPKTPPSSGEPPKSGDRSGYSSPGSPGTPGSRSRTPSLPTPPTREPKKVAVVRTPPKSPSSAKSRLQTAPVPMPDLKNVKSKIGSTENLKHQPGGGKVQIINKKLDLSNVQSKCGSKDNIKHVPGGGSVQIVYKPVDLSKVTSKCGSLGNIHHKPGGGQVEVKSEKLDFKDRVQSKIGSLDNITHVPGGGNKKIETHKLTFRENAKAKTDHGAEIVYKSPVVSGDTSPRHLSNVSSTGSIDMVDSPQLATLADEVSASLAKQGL
Procedure, shortened: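 Fibril formation assay: tau K18 P301L at 15 uM with trace Alexa 594 label, heparin inducer 20 uM, pH 7 sodium acetate buffer, 37 C for 6 hr; endpoint ThT signal.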
% is scaled to controls: 0 for no effect and ±100 for the full control effect; potency is read from the fitted curve at half-maximal effect; tags tell the direction and shape of the fitted curve.
Also: nearly all actives have a fitted effect of over 55% in size.

Row | Structure (SMILES) | Potency | activity, negative = inhibition
1 | N#Cc1ncc(-c2ccc3c(c2)OCCOCCOCCOCCO3)nc1C#N | active: 20 µM | –
2 | COC(=O)c1cnn(-c2cc(Oc3cccc(C)c3)ncn2)c1N | inconclusive: 6.31 µM [inhibitor, partial curve] | –
3 | CCCCCN1C=CC(=C2C(=O)c3ccccc3C2=O)C=C1 | inconclusive: 10 µM [inhibitor, partial curve] | –
4 | O=C(Nc1ccc(NC(=O)c2cc([N+](=O)[O-])ccc2N2CCOCC2)cc1)c1cccs1 | inconclusive: 17.8 µM [inhibitor, single point] | –
5 | CCc1cccc(CC)c1NC(=O)CCS(=O)(=O)c1ccc2c(c1)CCN2C(C)=O | – | inactive: -4.57%
6 | c1ccc2[nH]c(CSc3nc4ccccc4s3)nc2c1 | inconclusive: 6.31 µM [inhibitor, partial curve] | –
7 | Cc1cccc(NC(=O)c2oc3ccccc3c2NC(=O)Cc2coc3ccc(C(C)C)cc23)c1 | – | inactive: 10%
8 | COc1nc(N/N=C/c2ccc(-c3cccc([N+](=O)[O-])c3)o2)nc(N2CCOCC2)n1 | inconclusive: 3.98 µM [inhibitor, partial curve] | –
9 | COc1ccc(-c2nc(CCNC(=O)c3ccc(Br)o3)cs2)cc1 | inconclusive: 14.1 µM [inhibitor, partial curve] and inconclusive: 25.1 µM [inhibitor, single point] | –
10 | CCOc1ccccc1NC(=O)C1=C(C)Nc2ncnn2C1c1ccc(C)o1 (centres undefined) | – | inactive: -0.879%
11 | CCOc1cc(/C=N/Nc2cccc(C(=O)O)c2)ccc1OCC(=O)N1CCCCC1 | inconclusive: 12.6 µM [inhibitor, partial curve] | –
12 | On1onc2c3cc(-c4ccccc4)nc3ccc21 | active: 3.98 µM | –
13 | CCCN1C(=O)/C(=C\c2nc3ccccc3c(=O)[nH]2)c2ccccc21 | active: 22.4 µM | –
14 | O=C(CCN1CCC(c2ccccc2)C1)c1ccccc1 (centres undefined) | – | inactive: -14.3%
15 | CCCOc1ccc(Oc2nc(NCC(C)C)nc(N(C)C)n2)nn1 | – | inactive: -2.13%
16 | Oc1cccc(/C=N\Nc2nncc(-c3ccccc3)n2)c1 | – | inactive: 17.1%
17 | CCCCS(=O)(=O)N1CCc2nc(COc3ccccc3)c3c(c2C1)CO[C@@H](C)C3 | – | inactive: 0.145% [at 11.5 µM]
18 | O=C(CNC(=O)c1ccccc1Cl)OCC(=O)N1CCc2ccccc21 | inconclusive: 25.1 µM [inhibitor, partial curve] | –
19 | Cc1cccn2c(=O)cc(CSc3nnc(NC(=O)c4ccc(F)cc4)s3)nc12 | – | inactive: 6.19%
20 | Cc1ccc(C(=O)NC(=S)Nc2ccc(Oc3ccc(Cl)cc3)cc2)cc1 | – | inactive: -13.6%
21 | Cc1cccc(NC(=O)N[C@@H](C)C(=O)O)c1 | – | inactive: -14.1%
22 | COc1cccc(NC(=O)Cn2nc(C)c3c(C)n(-c4ccccc4)nc3c2=O)c1 | – | inactive: -7.29%
23 | CCC(=O)Nc1nnc(-c2cccs2)s1 | – | inactive: 8.45%

Row | Structure (SMILES) | Potency | activity, negative = inhibition
24 | CCOc1ccc(N(CC)C(=O)CCc2nc(-c3ccccc3F)no2)cc1 | inconclusive: 31.6 µM [inhibitor, single point] | –
25 | Cc1n[nH]c(=S)n1/N=C/c1ccccc1 | – | inactive: -3.65%
26 | COc1cccc(C(c2c(O)nc(SC)n(C)c2=O)c2c(O)nc(SC)n(C)c2=O)c1 | active: 12.6 µM | –
27 | COc1ccccc1C(=O)NC(=S)Nc1ccc(NC(=O)c2ccco2)cc1 | inconclusive: 0.562 µM [inhibitor, full curve] | –
28 | COC(=O)c1ccc(C2NC(=O)c3c(sc(C)c3C)N2)cc1 (centres undefined) | inconclusive: 17.8 µM [inhibitor, partial curve] | –
29 | COc1ccc(OC)c(/C=c2\sc3nc(-c4cccs4)nn3c2=O)c1 | inconclusive: 31.6 µM [inhibitor, partial curve] | –
30 | COc1cc(OC)c(NC(=O)Nc2ccc(OC)c(OC)c2)cc1Cl | inconclusive: 15.8 µM [inhibitor, partial curve] | –
31 | O=C1Nc2ccc(Br)cc2/C1=C/C1CC=CCC1 (centres undefined) | inconclusive: 31.6 µM [inhibitor, partial curve] | –
32 | Cc1ccc(NC(=O)Cn2nc3c(cc2=O)CCCC3)cc1Cl | – | inactive: -6.67%
33 | COc1cc(CNCCSc2nnnn2C)ccc1OCc1ccc(Cl)cc1Cl | inconclusive: 11.2 µM [inhibitor, partial curve, poor fit] | –
34 | CCC(C(=O)Nc1ccc(C)c(Cl)c1)n1c(=O)c(-c2ccccc2NC(C)=O)nc2ccccc21 (centres undefined) | – | inactive: -3.92%
35 | C[C@@H]1/C=C\CC(=O)OC[C@H](C)C(=O)N[C@@H](C)C(=O)OC1 | – | inactive: -5.93% [at 11.5 µM]
36 | CC1(C)C(=O)OC(c2cccc([N+](=O)[O-])c2)C2(CCCCC2)C1=O (centres undefined) | – | inactive: 1.27%
37 | Cc1ccc(/C([O-])=C(/C(=S)NCc2ccccc2)[n+]2cccc(CO)c2)cc1[N+](=O)[O-] | inconclusive: 15.8 µM [inhibitor, partial curve] | –
38 | COc1ccc(Cl)cc1NC(=O)Cn1c(=O)c2ccccc2n2nncc12 | inconclusive: 15.8 µM [inhibitor, partial curve] | –
39 | O=C1C(O)=C(O)C(=O)C(O)=C1O | active: 12.6 µM | –
40 | O=[N+]([O-])c1ccc(N/N=C/c2ccccc2)c(F)c1 | active: 7.08 µM | –
41 | O=C(Nc1cccc2ncccc12)C(Cl)(Cl)Cl | – | inactive: 8.69%
42 | O=C(NCCn1cc(SCc2ccc(F)cc2)c2ccccc21)c1cccs1 | inconclusive: 7.94 µM [inhibitor, partial curve] | –
43 | Cc1ccc(Cn2ccc(=O)c(OCc3c(Cl)cccc3Cl)c2C)cc1 | inconclusive: 22.4 µM [inhibitor, partial curve] | –
44 | CC1CCCCC1NC(=O)c1cncc(Br)c1 (centres undefined) | – | inactive: 3.76%
45 | C/C(=N\OCC(=O)N/N=C/c1ccc(C)cc1O)c1cccs1 | inconclusive: 20 µM [inhibitor, partial curve] | –
46 | S=c1[nH]nc(-c2ccc3ccccc3n2)n1-c1ccc2ncccc2c1 | inconclusive: 20 µM [inhibitor, single point] | –

Row | Structure (SMILES) | Potency | activity, negative = inhibition
47 | CCc1nc(-c2ccc(C)c(S(=O)(=O)N3CCN(c4ccc(C(C)=O)cc4)CC3)c2)no1 | – | inactive: -1.3%
48 | O=C(CNC(=O)c1ccc(-c2ccccc2)cc1)OCc1ccc(Cl)cc1 | inconclusive: 20 µM [inhibitor, partial curve, poor fit] | –
49 | C/C(=N\NC(=O)c1cnccn1)c1ccc([N+](=O)[O-])cc1 | inconclusive: 11.2 µM [inhibitor, partial curve] | –
50 | CCOc1nc(Nc2ccc(OC)c(Cl)c2)nc(N2CCN(c3ccc(OC)cc3)CC2)n1 | inconclusive: 11.2 µM [inhibitor, partial curve] | –
51 | CC(=O)Nc1ccc(-c2csc(NNC(=O)c3ccc(C)cc3)n2)cc1 | active: 11.2 µM | –
52 | Cc1ccnc(SCC(=O)c2ccc([N+](=O)[O-])cc2)n1 | inconclusive: 28.2 µM [inhibitor, single point] | –
53 | COc1ccc(C(=O)/C=C/N2CCCCC2)cc1OC | inconclusive: 14.1 µM [inhibitor, partial curve] | –
54 | COc1ccc(-n2ccnc2SCC(=O)NCc2ccco2)c(OC)c1 | – | inactive: -12.6%
55 | Cc1cc(F)ccc1S(=O)(=O)Nc1ccccc1C(=O)Nc1ccc2[nH]c(=O)[nH]c2c1 | inconclusive: 25.1 µM [inhibitor, partial curve] | –
56 | Cc1ccc(Cn2c(C)c3cnn(CC(=O)NCCc4ccc(Cl)cc4)c(=O)c3c2C)cc1 | inconclusive: 5.62 µM [inhibitor, single point] | –
57 | COc1cc(C)ccc1OCCOc1c(C)cc(Cl)cc1Cl | inconclusive: 35.5 µM [inhibitor, single point] | –
58 | O=S1(=O)C=CC(Nc2ccccc2)C1 (centres undefined) | – | inactive: -6.7%
59 | Cc1ccsc1/C=N\Nc1cn[nH]c(=O)c1Cl | inconclusive: 20 µM [inhibitor, single point] | –
60 | Cc1cccc(S(=O)(=O)c2cn(C)c3cc(N4CCN(c5ccccc5)CC4)c(F)cc3c2=O)c1 | – | inactive: 4.04%
61 | CN(C)c1c([N+](=O)[O-])cc2[nH]c(=O)[nH]c2c1[N+](=O)[O-] | inconclusive: 31.6 µM [inhibitor, partial curve] | –
62 | Cc1ccc(O)c(NC(=S)NC(=O)c2ccccc2Cl)c1 | inconclusive: 14.1 µM [inhibitor, partial curve] | –
63 | Cc1ccc(-c2nc3ncccn3c2Nc2ccc3c(c2)OCO3)o1 | inconclusive: 22.4 µM [inhibitor, partial curve] | –
64 | FC(F)(F)c1cccc(-c2ccc(/C=N/Nc3nncc(-c4ccccc4)n3)o2)c1 | inconclusive: 2.51 µM [inhibitor, full curve] | –
65 | COc1ccc(CCn2c(N)c(C(=O)NCc3ccco3)c3nc4ccccc4nc32)cc1OC | active: 17.8 µM | –
66 | O=C(c1ccc(COc2ccc(F)cc2)o1)n1cc(Br)cn1 | inconclusive: 15.8 µM [inhibitor, partial curve] | –
67 | CSc1sc(C(=O)NNC(=O)c2ccc(Cl)cc2)c2c1C=CCC2 | inconclusive: 28.2 µM [inhibitor, partial curve] | –
68 | Cc1ccc(C(=O)CNc2ccc(Br)cc2)cc1 | inconclusive: 5.62 µM [inhibitor, partial curve] | –
69 | Cc1c2oc3c(C)ccc(C(=O)N[C@@H]4C(=O)N[C@H](C(C)C)C(=O)N5CCC[C@H]5C(=O)N(C)CC(=O)N(C)[C@@H](C(C)C)C(=O)O[C@@H]4C)c3nc-2c(C(=O)N[C@@H]2C(=O)N[C@H](C(C)C)C(=O)N3CCC[C@H]3C(=O)N(C)CC(=O)N(C)[C@@H](C(C)C)C(=O)O[C@@H]2C)c(N)c1=O (I: T[dV]P[Sar][NMeV] / II: T[dV]P[Sar][NMeV]; ester I:1-I:C, II:1-II:C; linker I:N-II:N via Actinocin(9to1)) | inconclusive: 25.1 µM [inhibitor, partial curve, poor fit] | –
